Laboratory results: PubChem BioAssay AID1030 (National Center for Advancing Translational Sciences (NCATS), 2008)
The campaign covered roughly 220,000 compounds. About 16,000 (7.3%) were called active. This list was built around the results that the source calls inconclusive (neither active nor inactive); the mix of calls is not that of the screen. The call rests on the fitted dose curve; in most records, active means well fitted inhibition curve with a large enough effect (not every such curve was filed as active); inconclusive means small, poorly fitted or top-dose-only effect, or another doubt; inactive means no such curve, though single readings can be large or run the other way. Potencies beside an inconclusive call are fits to weak or partial responses and may not hold up. Numbered stars: 1 amine (or outer) side, 2 acyl side, 3 side chain; on linkers, the order of the positions; unused ones are H or OH. Bridge positions count the residues as written; N and C are the ends. Square brackets hold non-standard residues; d marks the D form. Peptide text beside a SMILES is read from it. ξ: configuration not given here. hSer(Ph(2-I,4-NO2,6-CO)) = O=C([C@H](CCOc1c(I)cc([N+](=O)[O-])cc1C(=O)[*:3])N[*:1])[*:2]; ξD = NC(CC(=O)O)C(=O)O

Biological target: Aldehyde dehydrogenase 1A1 (Homo sapiens) (UniProt P00352)
Assay: qHTS Assay for Inhibitors of Aldehyde Dehydrogenase 1 (ALDH1A1);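 on activity, negative = inhibition: plate controls were no enzyme wells and a reference inhibitor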
Settings: Purified ALDH1A1, NADH fluorescence, propionaldehyde substrate; series mostly up to 75.3 µM; activity, negative = inhibition: at the top concentration
Potency means the concentration at half of the fitted maximal effect; tags describe the fitted curve by direction and shape.

Sequence of UniProt P00352 (P00352 whole entry, looked up): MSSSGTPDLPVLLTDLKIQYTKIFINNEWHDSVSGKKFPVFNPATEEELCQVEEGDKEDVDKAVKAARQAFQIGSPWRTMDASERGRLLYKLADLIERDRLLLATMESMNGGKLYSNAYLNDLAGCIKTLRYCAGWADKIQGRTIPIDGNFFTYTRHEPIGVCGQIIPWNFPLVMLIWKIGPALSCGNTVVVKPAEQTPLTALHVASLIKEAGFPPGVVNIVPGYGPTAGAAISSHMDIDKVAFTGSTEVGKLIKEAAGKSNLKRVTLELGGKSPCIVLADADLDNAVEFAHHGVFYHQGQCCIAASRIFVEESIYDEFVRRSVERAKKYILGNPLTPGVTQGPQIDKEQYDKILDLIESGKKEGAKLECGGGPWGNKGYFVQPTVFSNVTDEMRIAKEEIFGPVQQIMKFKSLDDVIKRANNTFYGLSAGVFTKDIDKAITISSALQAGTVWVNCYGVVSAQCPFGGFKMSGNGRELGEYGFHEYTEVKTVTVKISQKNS

activity, negative = inhibition, inactive:
O=C(c1ccc(N2CCCC2=O)cc1)N1CCN(c2ccccc2)CC1 8.89%
O=C(NCc1ccccn1)C1CCN(S(=O)(=O)c2cc(Cl)ccc2Cl)CC1 -1.77%
Cc1ccc2c(CC(=O)N3CCN(c4ccccc4)CC3)coc2c1 -14.5%
Cc1ccc(/C=C/C(=O)O)cc1S(=O)(=O)N(CCO)CCO 7.92%
CC1=Cc2ccccc2C(C#N)N1C(=O)c1ccccc1 (centres undefined) -9.85%
CC(C)N1CCN(Cc2ccc(C#CCCO)cc2)CC1CCO (centres undefined) 8.78%
COc1cc([N+](=O)[O-])ccc1NC(=O)CCCOc1ccccc1 -9.48%
Cc1ccc(NC(=O)CCOc2ccccc2C)cc1F -0.342%
O=C(CSc1nnc(COc2ccccc2F)n1-c1ccccc1)NCc1ccco1 -9.28%
Cc1ccsc1/C=N/Nc1nc2ccccc2s1 -4.2%
CC(C)=CCN1CCN(CCC2=C(C)CCCC2(C)C)CC1CCO (centres undefined) 5.92%
C[N@@+]1(Cc2ccc(Cl)c(Cl)c2)CCC[C@@H]1c1ccc[n+](Cc2ccc(Cl)c(Cl)c2)c1 11.2% [at 13.5 µM]
COc1ccc(N(C(C)=O)S(=O)(=O)c2cc(OC)ccc2OC)cc1 3.69%
C=C(C)C(O)/C=C/c1ccc(C)cc1 (centres undefined) -0.95% [at 13.5 µM]
C=CCn1c(N)c(C(=O)NCC2CCCO2)sc1=S (centres undefined) 4.07%
CCOCCCNS(=O)(=O)c1ccc2c(c1)CCN2C(=O)CC -5.66%
Cc1ccc(CNc2ccc(S(=O)(=O)N3CCOCC3)cc2[N+](=O)[O-])cc1 -0.146%
COC(=O)c1ccccc1NC(=O)CSc1nccn1C -10.2%
CCN(CC)c1ccc(NC(=O)CSc2nc(C)cc(=O)[nH]2)cc1 9.68%
CC1CCN(CCCn2c(=S)[nH]c3c(sc4ccc([N+](=O)[O-])cc43)c2=O)CC1 -14.7%
CC(C)CN(C(=O)CN1CCC(C)CC1)c1c(N)n(CC(C)C)c(=O)[nH]c1=O 11.4%
c1nnc2c3c4c(sc3ncn12)CCCC4 21.6%
COc1ccc(Cl)cc1NC(=S)Nc1cccc(C)c1 -7.79%
O=C1C=CC2(OCCCO2)C(Br)=C1CO 2.48%

Potency, inconclusive:
COc1ccc2c(c1OC)C(=O)N1c3ccccc3C(=O)N(c3ccccc3F)C21 (centres undefined) 39.8 µM [inhibitor, single point]
N#CCCN(Cc1cccnc1)S(=O)(=O)c1ccc(S(=O)(=O)N2CCCCCC2)cc1 12.6 µM [inhibitor, partial curve]
Cc1nc(Nc2ccc3c(c2)OCO3)c2oc3ccccc3c2n1 39.8 µM [inhibitor, single point]
C[N+](C)(C)CC/C=C1/c2ccccc2CSc2ccccc21 39.8 µM [inhibitor, single point]
COc1ccc2[nH]c(=O)c(CN(C(C)=O)c3cccc(C)c3)cc2c1 39.8 µM [inhibitor, single point]
C[C@@H]1NC(=O)c2cc([N+](=O)[O-])cc(I)c2OCC[C@@H](C(=O)NC(CC(=O)O)C(N)=O)NC(=O)[C@H](CC(N)=O)NC1=O (some centres undefined) (AN[hSer(Ph(2-I,4-NO2,6-CO))][ξD]-NH2; lactam N-3) 39.8 µM [inhibitor, single point]
C[N+]12CCCCC1C(COC(=O)c1ccc3c(c1)OCO3)CCC2 (centres undefined) 44.7 µM [inhibitor, single point]
CNC(=O)Nc1cccc(-c2cc(-c3c(Cl)cccc3Cl)no2)c1 37.7 µM [inhibitor, single point]
CC(NC(=O)c1ccccc1NS(C)(=O)=O)c1ccccc1 (centres undefined) 23.8 µM [inhibitor, partial curve]
CC(=O)Oc1ccc(Cl)cc1/C=C/c1cc(OC(C)=O)c2ccccc2n1 22.4 µM [inhibitor, partial curve]
O=c1c(O)c(-c2ccc(O)cc2)oc2ccccc12 14.1 µM [inhibitor, partial curve]
CCOC(=O)c1nnc2c(Br)c(-c3ccccc3)nn2c1C 44.7 µM [inhibitor, single point]
CCCn1c(-c2ccc(F)cc2)nc2c(NCCCCN(CC)CC)nc(C)nc21 31.6 µM [inhibitor, single point]
Cc1nc2ccc(NC(=O)C3CCN(S(=O)(=O)c4cccs4)CC3)cc2s1 28.2 µM [inhibitor, single point]
CC(C)NC(=O)c1cc2c(-c3ccc(Cl)cc3)nn(C)c2s1 35.5 µM [inhibitor, single point]
O=C(O)C1OC(C(=O)O)C2C1C(F)(F)C2(F)F (centres undefined) 44.7 µM [inhibitor, single point]
CCOC(=O)/C(C)=C1\NC(C)(C)Cc2ccccc21 28.2 µM [inhibitor, single point]
CC(=O)Oc1cccc(-c2nc3ccccc3c(=O)o2)c1 39.8 µM [inhibitor, single point]
COc1ccc(S(=O)(=O)N2CCN(C3Cc4ccccc4C3)CC2)cc1 35.5 µM [inhibitor, single point]
COc1ccc(CNC(=O)c2ccc(NC(=O)CC3SC(N4CCCC4)=NC3=O)cc2)cc1 (centres undefined) 39.8 µM [inhibitor, single point]
c1ccc(-n2ncc3c(NCCN4CCOCC4)ncnc32)cc1 25.1 µM [inhibitor, partial curve]
CN(C)c1ccc([C@@H]2[C@@H]([N+](=O)[O-])[C@H]3C=Cc4ccccc4N3[C@H]2C(=O)c2ccc(Cl)cc2)cc1 14.1 µM [inhibitor, partial curve]
Cc1ccc(NCC(=O)N/N=C/c2cccc(Oc3ccccc3)c2)cc1 25.1 µM [inhibitor, single point]
O=C(CN1CCOCC1)Nc1cccc(Br)c1 39.8 µM [inhibitor, single point]
O=c1[nH]c2ccc(NC(=S)Nc3ccc(Cl)cc3Cl)cc2[nH]1 44.7 µM [inhibitor, single point]
O=c1cc2c(nn1Cc1c(Cl)cccc1Cl)-c1ccccc1CC2 22.4 µM [inhibitor, partial curve]
O=S1(=O)c2ccccc2N=NN1Cc1cc(Cl)cc(Cl)c1 44.7 µM [inhibitor, single point]
CC(=O)c1cc2c(cc1NC(=O)CN1CCN(c3ccc(F)cc3)CC1)OCO2 39.8 µM [inhibitor, single point]
Cc1cc(C=C2C(=O)CCCC2=O)c(C)n1-c1ccccc1 25.1 µM [inhibitor, partial curve]
Cc1ccc(NC(=S)N(CCCN2CCCC2)Cc2cccn2Cc2ccc(Cl)cc2)cc1Cl 39.8 µM [inhibitor, single point]
Cc1ccc(C(=O)n2nc(-c3ccccc3)nc2NCc2ccco2)cc1 39.8 µM [inhibitor, single point]
O=C(CCn1c(=O)c2sccc2n(Cc2cc(=O)n3ccccc3n2)c1=O)NCc1ccco1 39.8 µM [inhibitor, single point]
COc1ccccc1N1CCN(C/C=C/c2ccc(N(C)C)cc2)CC1 22.4 µM [inhibitor, partial curve]
COc1ccc(-c2nc3cnc(N4CCOCC4)nc3n(Cc3cccc(OC)c3)c2=O)cc1 8.91 µM [inhibitor, partial curve]
CC1(C)CC(CC(=O)O)(c2ccc(Cl)cc2)CCO1 (centres undefined) 39.8 µM [inhibitor, single point]
CCCCNc1cc(C(=O)O)cc(S(N)(=O)=O)c1Oc1ccccc1 25.1 µM [inhibitor, partial curve] [middle of 5 runs]

Potency, inactive:
COC(=O)[C@@]1(Cc2ccc(OC)cc2)[C@H]2c3cc(C(=O)N(C)C)n(CCSCCO)c3C[C@H]2CN1C(=O)c1ccccc1

Potency, active:
O=C(COc1ccc(C(=S)N2CCOCC2)cc1Cl)Nc1ccccc1Cl 17.8 µM
COc1ccc(C(=O)/C=C/c2ccc(N3CCCCC3)c([N+](=O)[O-])c2)c(OC)c1 20 µM
O=c1cc(CN2CCN(c3ccccc3F)CC2)c2cc(O)c(-c3ccccc3)cc2o1 28.2 µM
COc1ccc(Cl)cc1NS(=O)(=O)c1ccc(OC)c(OC)c1 12.6 µM
Fc1ccc(Cn2nnnc2C(c2cccs2)N2CCCCCC2)cc1 (centres undefined) 7.94 µM
COCC(=O)Oc1c(Sc2ccccc2[N+](=O)[O-])c(C)nn1C(C)(C)C 8.91 µM
CN(C)c1ccc(CN(C(=O)COc2ccccc2)C2CCS(=O)(=O)C2)cc1 (centres undefined) 3.98 µM
COc1ccc(C(=O)Nc2ccc(S(=O)(=O)N3CCCCC3C)cc2)c(OC)c1OC (centres undefined) 17.8 µM
Cc1nn(CC(=O)Nc2ccc(C(=O)N3CCCCC3)cc2)c(=O)c2ccccc12 12.6 µM
COc1ccccc1NC(=O)CC1Nc2ccccc2NC1=O (centres undefined) 28.2 µM
O=C(NCCOc1ccc(Cl)cc1)C1CC(=O)N(c2ccc(F)cc2)C1 (centres undefined) 25.1 µM
Cc1ccc(NC(=O)c2cc(S(=O)(=O)NCCC3=CCCCC3)ccc2F)cc1 22.4 µM
C=CCN1C(=O)CSc2ccc(C(=O)NCc3ccco3)cc21 22.4 µM
